Experimental data from the supplement of paper PMC12632987.
In all, about 2,300 sequences were measured (“median log2 fold change of GCK-ALFA target abundance (FLAG IP / Myc IP barcode read proportion)”: median about 0.095, lowest 2% from about -0.47 on). The list shows a part of the results.

B1: LC3A_free_46_2393 (protein)
chain: IKGYIDLLLKGATEEQAKEIAEAAVEKIKEEAAKKGINVKIEVTITKDEDGDYFIDIEVEMDTDDENEALDILDEVEDYALEKAKELGIEASSIISVEKD
B2: LC3A_free_39_2177 (protein)
chain: SEEELKKAKEELLKLAKEEGEEALKIAKEILELINGNLELVKLLVEGLKKIKEEGGDVLATLKRILEEIKRLKEEGKSMEEILEEVKEIIEDDLNLIPLD
B3: LC3A_3_1470 (protein)
chain: MDPLIKELRERLKAAGVPEEAIERIVENMEKILKHGVLEEAVEEIKKALESPNATPEKLVELSEELAKRVEEEKLTPEEAREEARVLRLEYIEIEEIDEE
B4: LC3A_free_8_2503 (protein)
chain: SRQEVVDAALDGLDELEKELVEKAKELGLSELDILELELEIGSVIAEVISNADASPEEILKATREGLERIIKLAKELSEELAKLAEEKSKEILEELEKLL
B5: LC3A_3_1488 (protein)
chain: MEELLEEARRVLRERGASEEQIEAVLADLERVLELGYEETVREFIRLLRERPDLSPEQIVAAAGTILDRVEEEDLTEEEAVEYARRVMEDVAEIEELEEE
B6: LC3A_37_1343 (protein)
chain: EEKWVIVVVANSEEAYEKAKKEAEKEAKAIGAELRTKLLPETATEQELIDAAEELAKEVAEEIAKKTGKEVESSSIIEVDRDEETGEIVVTKYVLLTIKP
B7: LC3A_147_450 (protein)
chain: VLYEITVDILFKNDPELAEEVEEEIKEIAEKYGGEVEVEREVEQETPTTTLYFVRVTIKFEDEEKALEAEQEISELLDETAKKHPEKFVGAMISIEKIEE
B8: LC3A_147_470 (protein)
chain: YKTEVDIDILTKDAEEEVIKALKEIAEELKKEGYKVELKIETEKLPDGTTYIEATITIEAETLEEAEKAANKVISLIDEMEEKLKDKILGSLISVSIEKK
B9: LC3A_free_8_2536 (protein)
chain: KREEILRKISEILDRTEKEVEEAGKKLGVDRIDILELQLLIGEAIIAAHEAPFRSLEETREEILEALKEAEEEAKKLSPEIAKIVREAREEVEALLEEAL
B10: LC3A_free_8_2545 (protein)
chain: KTEEFLAKVSKLLDELEEEIEEKAKELGLSELDILDLSLLVGETLAEMLDASEEGPEKALEAVKEGLKEVIEEAKELSEELAKFVKEKAEKLLKEAEKLL
B11: LC3A_3_1545 (protein)
chain: MDALRAATLAALRAAGASDAVLAAAAAAFDALAARGYDEAAAVLAAEARALADLPDDILLWFFEDVLAYVETEDADEEEVIAKIRELAATARAEGEIEEL
B12: LC3A_3_1701 (protein)
chain: MEELLEEARKILTEQGRSEETIEAALAALKALLDRGYEEAAKTLLELLKESGDLSDETLLAFFEDVLAYVETEDASEEEVIAFIKHEYKVAKNDQEIEEL
B13: LC3A_free_12_2128 (protein)
chain: SHEEMLEGFTDLAIAAAEVNVELAKEMLKELIDMGEAEGAVKVIIALAKSGKVSEEELIELIKELVDKAKPSKEQLKKLKEALKKLGKEEAAAYVEELLK
B14: LC3A_28_930 (protein)
chain: MTVEEIKAHIREVADEAIAKGEDAYIEIEIGSDTTVEEAEEIMDELEREAARLAAAGLKVNVVIDLDNVSQEVLDTVLSKADEINEKYPRVNVYIALDEE
B15: LC3A_28_928 (protein)
chain: MTVEEIKEKIKKEADEAIKKGEDAYIEIEIGSSYTKEEAEEIMETLREEAKKLAEAGLKVSVVIDLDNVSQEVLDTVLDKADEINEEYPLVNVIIALDEE
B16: LC3A_28_823 (protein)
chain: SAVDERNAKVLAEAKALAAAGEERTITVTVESSDTLEDIEKTAETIKEIAEILKPLDSVTILIDLTEPISPESLKKLADTGDEVEKKYPNVTVIIALPEE
B17: LC3A_132_305 (protein)
chain: GEKLAEELIKKAKEALELAKTDPEKKEEILKLLEEIRKLMEELKKKASPELAAKAFEEVMEIMLELSRVASKQGWDEVADEAFALAAEAAQLAAEAKAKL
B18: LC3A_3_1476 (protein)
chain: MEERVEEVLKELREAGWSEEALEKVREAAEKLKELGHEKALETFLEEMRELKDLPSELVLEAAEEVLEAIEKYKDDEEKLIEEIKSIAAATKAEGEIIEL
B19: LC3A_17_583 (protein)
chain: SEEIKKKIEELLKELEKLIKKAKELGIPKAKEIEKLLEKAKKELKEGKLKEAAELLEEAARLLADAFDEIEEEKGDEASLLSMEAEGLELEAIGLLLKLE
B20: LC3A_37_1345 (protein)
chain: EEIDVIIVVANDEETFEKYKKEAEEEAEKLNAELIAELLPESATVQELVDKAEELAEEKVKEIEEKSGKEVESSSIIEIEKDEETGKYAVILYVLITLKE
B21: LC3A_141_372 (protein)
chain: TTTTETWTVGEASLDELLAAVDAAFALVEEKLAANPDAVVTVTLTLTVYDEETKETTTITETYTVTKENLELVKEGAEIAVESASLKGKTTLTITLTFDE
B22: LC3A_3_1352 (protein)
chain: MEELIERAVERLREAGLSEEAIAAARAAMEALAAQGHEEAIERLTEVLLKHKDAPEEHIIAALNNLTAELKANPNLTEEEVLELVELFDADLAIEPLEEE
B23: LC3A_free_8_2449 (protein)
chain: SAEEATRTALEGLDRLEEELVALAKKLGLSRLDILDIELLVGSTIADVISNRDKTPEEILKTTEEGLKEILEEAKKLGEELAKLAEKLSKEILERLKAIA
B24: LC3A_36_1340 (protein)
chain: QKVITATAKEEDIKKATAKANAEGADLRLEFSPETTVEEIEKALNLVLELSKNISNIIIDLDAKTQEELQKKLVVASKVADKIEKENGKNVIIAYDVVEP
B25: LC3A_132_313 (protein)
chain: SEKKYEEIKKKLEELLKEAEKNINDKEKVEELLKEIRKLLEEAEKELSPEQVKELYDFVADRLYKLSLKADEAGKEDVSLLLDAAAIEAASKALKAEKKI
B26: LC3A_28_738 (protein)
chain: SAIEKELEKAIKEAKEAAKAKEPKVITITVPGTANEEDIELVIKALEEIAEILKDVKDQAIIIDVDGKLDPELLKKLMDKAEEIEEKYPNVTVIIALDEE
B27: LC3A_28_1061 (protein)
chain: SEVEEEIERALAEAREAVAAGEEALVTLTINEKDTEEDVEKKLETMREIAELAKSLPRVTIIVDVDSERKEEITKKVSEVGDELEKKYPNVTVIIALSEE
B28: LC3A_147_497 (protein)
chain: VKVKIEFENISEELKEKIEELAKKLEELAKKYKGKIKVNIIIDILDKDGGYARIELEAYVENEEEAKKLINEVIDLVEEFEEENKDLVSAVVISAEIEEP
B29: LC3A_3_1688 (protein)
chain: MEEKVEEVLKLAKENGLSEEALKALKELLEALAERGYLKAIEEVYEELKKLKNVSSEDIKAMFEELLKEVKEKDLSEEEIVELIREEARVLLNASEIIEL

Target: MAP1LC3A, Q9H492
Test: median log2 fold change of GCK-ALFA target abundance (FLAG IP / Myc IP barcode read proportion) (log2 ratio); each designed protein is fused to an ALFA-tag nanobody in HEK293 cells to bring the named protein to FLAG-tagged glucokinase (GCK); Myc marks an untargeted standard; higher = target protein stabilised (more abundant)
Settings: target protein: 3xFLAG-MCP-GCK-ALFA reporter; HEK293 landing pad (RPLP)
Summary of the method: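 An ALFA-nanobody-fused binder library was recombined into HEK293 landing-pad cells and induced with 2 μg mL^−1 doxycycline. Cells were transfected with a plasmid expressing a FLAG-tagged target and a Myc-tagged standard. After 48 h, lysates underwent anti-FLAG and anti-Myc immunoprecipitation, and circular RNA barcodes were reverse transcribed, amplified and sequenced. Target abundance is the per-binder median log2 ratio of FLAG to Myc barcode read proportions. Barcodes needed ≥10^−7 proportion in both replicates, binders ≥3 barcodes per replicate, and a 10^−6 pseudocount was added; the two replicates were pooled.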

| Binder | median log2 fold change |
| --- | --- |
| B1 | -0.0869 |
| B2 | 0.0742 |
| B3 | 0.314 |
| B4 | -0.132 |
| B5 | 0.113 |
| B6 | 0.102 |
| B7 | -0.716 |
| B8 | -0.397 |
| B9 | -0.187 |
| B10 | -0.129 |
| B11 | 0.253 |
| B12 | 0.215 |
| B13 | 0.127 |
| B14 | -0.0657 |
| B15 | -0.367 |
| B16 | 0.266 |
| B17 | 0.108 |
| B18 | 0.254 |
| B19 | -0.14 |
| B20 | -0.237 |
| B21 | 0.35 |
| B22 | 0.124 |
| B23 | -0.0345 |
| B24 | 0.325 |
| B25 | -0.171 |
| B26 | 0.167 |
| B27 | -0.118 |
| B28 | 0.302 |
| B29 | 0.389 |
